According to the supplement of paper PMC6657886:
MIC of clinical N. gonorrhoeae isolates (2015-2017) by agar dilution on GC agar with 1% IsoVitaleX (ranges not stated); higher = less susceptible. No active / inactive call per row; the paper counts benzylpenicillin above 1 and ceftriaxone above 0.125 mg/L as resistant (EUCAST). The method is stated for benzylpenicillin and ceftriaxone and assumed for the other drugs. '<=' is inferred from pile-ups at the end values. Isolates are numbered anew.

How the values were obtained:
Experiment in all cases: Agar dilution on enriched GC agar; resistance determinants by microarray.
[1] = compound: CC[C@H]1OC(=O)[C@H](C)[C@@H](O[C@H]2C[C@@](C)(OC)[C@@H](O)[C@H](C)O2)[C@H](C)[C@@H](O[C@@H]2O[C@H](C)C[C@H](N(C)C)[C@H]2O)[C@](C)(O)C[C@@H](C)CN(C)[C@H](C)[C@@H](O)[C@]1(C)O [azithromycin]
[2] = compound: CO/N=C(\C(=O)N[C@@H]1C(=O)N2C(C(=O)O)=C(CSc3nc(=O)c(O)nn3C)CS[C@H]12)c1csc(N)n1 [ceftriaxone]
[3] = compound: CN[C@@H]1[C@H](O)[C@H](NC)[C@H]2O[C@@]3(O)C(=O)C[C@@H](C)O[C@H]3O[C@@H]2[C@H]1O [spectinomycin]
[4] = compound: CC1(C)S[C@@H]2[C@H](NC(=O)Cc3ccccc3)C(=O)N2[C@H]1C(=O)O [benzylpenicillin]
[5] = compound: CN(C)[C@@H]1C(O)=C(C(N)=O)C(=O)[C@@]2(O)C(O)=C3C(=O)c4c(O)cccc4[C@@](C)(O)[C@H]3C[C@@H]12 [tetracycline]

With “Neisseria gonorrhoeae isolate 55 (blaTEM plasmid: no, gyrA: wild type, mtrR promoter: wild type, parC: wild type, penA: wild type, ponA: wild type, porB: wild type, rpsJ: wild type, tetM plasmid: no)” the MIC [1] was 0.03 µg/mL, the MIC [2] was ≤ 0.002 µg/mL and the MIC [3] was 16 µg/mL. For the same test system, the MIC [4] was ≤ 0.015 µg/mL and the MIC [5] was 0.06 µg/mL.
With “Neisseria gonorrhoeae isolate 414 (blaTEM plasmid: no, gyrA: Thr91, Gly95, mtrR promoter: wild type, parC: wild type, penA: wild type, ponA: wild type, porB: wild type, rpsJ: wild type, tetM plasmid: yes)” the MIC [1] was 0.06 µg/mL, the MIC [2] was ≤ 0.002 µg/mL and the MIC [3] was 16 µg/mL. For the same test system, the MIC [4] was 0.06 µg/mL and the MIC [5] was 8 µg/mL.
“Neisseria gonorrhoeae isolate 42 (blaTEM plasmid: no, gyrA: wild type, mtrR promoter: wild type, parC: wild type, penA: wild type, ponA: wild type, porB: wild type, rpsJ: wild type, tetM plasmid: no)” was tested, and the MIC [1] was 0.06 µg/mL, the MIC [2] was ≤ 0.002 µg/mL and the MIC [3] was 8 µg/mL. The MIC [4] was ≤ 0.015 µg/mL and the MIC [5] was 0.06 µg/mL.
“Neisseria gonorrhoeae isolate 256 (blaTEM plasmid: no, gyrA: wild type, mtrR promoter: wild type, parC: wild type, penA: ins345Asp, ponA: wild type, porB: Asn120, Asp121, rpsJ: Met57, tetM plasmid: no)” was tested, and the MIC [1] was 0.03 µg/mL, the MIC [2] was 0.03 µg/mL and the MIC [3] was 8 µg/mL. It also gave an MIC [4] of 0.06 µg/mL and an MIC [5] of 0.25 µg/mL.
Work on “Neisseria gonorrhoeae isolate 413 (blaTEM plasmid: no, gyrA: wild type, mtrR promoter: -35delA, parC: wild type, penA: wild type, ponA: wild type, porB: wild type, rpsJ: wild type, tetM plasmid: no)” yielded an MIC [1] of 0.12 µg/mL, an MIC [2] of 0.004 µg/mL and an MIC [3] of 16 µg/mL. For the same test system, the MIC [4] was 0.03 µg/mL and the MIC [5] was 0.25 µg/mL.
“Neisseria gonorrhoeae isolate 54 (blaTEM plasmid: no, gyrA: Phe91, Gly95, mtrR promoter: wild type, parC: Arg87, Glu91, penA: ins345Asp, ponA: Pro421, porB: Asp120, Ala121, rpsJ: wild type, tetM plasmid: no)” was tested, and the MIC [1] was 0.015 µg/mL, the MIC [2] was 0.004 µg/mL and the MIC [3] was 32 µg/mL. For the same test system, the MIC [4] was 0.25 µg/mL and the MIC [5] was 0.25 µg/mL.
“Neisseria gonorrhoeae isolate 3 (blaTEM plasmid: no, gyrA: Thr91, Gly95, mtrR promoter: wild type, parC: wild type, penA: ins345Asp, ponA: wild type, porB: wild type, rpsJ: wild type, tetM plasmid: no)” was tested, and the MIC [1] was 0.015 µg/mL, the MIC [2] was ≤ 0.002 µg/mL and the MIC [3] was 32 µg/mL. The MIC [4] was 0.12 µg/mL and the MIC [5] was 0.12 µg/mL.
With “Neisseria gonorrhoeae isolate 501 (blaTEM plasmid: no, gyrA: Thr91, Gly95, mtrR promoter: wild type, parC: wild type, penA: ins345Asp, ponA: wild type, porB: Gly120, Ser121, rpsJ: Met57, tetM plasmid: no)” the MIC [1] was 0.06 µg/mL, the MIC [2] was ≤ 0.002 µg/mL and the MIC [3] was 16 µg/mL. For the same test system, the MIC [4] was 0.25 µg/mL and the MIC [5] was 0.5 µg/mL.
Work on “Neisseria gonorrhoeae isolate 395 (blaTEM plasmid: no, gyrA: Thr 91, Asp95, mtrR promoter: wild type, parC: wild type, penA: wild type, ponA: wild type, porB: wild type, rpsJ: wild type, tetM plasmid: no)” yielded an MIC [1] of 0.12 µg/mL, an MIC [2] of 0.004 µg/mL and an MIC [3] of 16 µg/mL. The MIC [4] was 0.12 µg/mL and the MIC [5] was 0.5 µg/mL.
“Neisseria gonorrhoeae isolate 479 (blaTEM plasmid: no, gyrA: wild type, mtrR promoter: wild type, parC: wild type, penA: ins345Asp, ponA: Pro421, porB: wild type, rpsJ: wild type, tetM plasmid: no)” was tested, and the MIC [1] was 0.03 µg/mL, the MIC [2] was ≤ 0.002 µg/mL and the MIC [3] was 4 µg/mL. The MIC [4] was 0.06 µg/mL and the MIC [5] was 0.06 µg/mL.
“Neisseria gonorrhoeae isolate 120 (blaTEM plasmid: no, gyrA: Phe91, Asn95, mtrR promoter: -35delA, parC: Ser87, Gly91, penA: ins345Asp, ponA: Pro421, porB: wild type, rpsJ: Met57, tetM plasmid: no)” was tested, and the MIC [1] was 0.015 µg/mL, the MIC [2] was ≤ 0.002 µg/mL and the MIC [3] was 16 µg/mL. For the same test system, the MIC [4] was 0.03 µg/mL and the MIC [5] was 0.12 µg/mL.
For “Neisseria gonorrhoeae isolate 194 (blaTEM plasmid: no, gyrA: Phe91, Asn 95, mtrR promoter: wild type, parC: wild type, penA: ins345Asp, ponA: Pro421, porB: Asp120, Gly121, rpsJ: Met57, tetM plasmid: yes)”, the MIC [1] was 0.06 µg/mL, the MIC [2] was ≤ 0.002 µg/mL and the MIC [3] was 8 µg/mL. It also gave an MIC [4] of 1 µg/mL and an MIC [5] of 16 µg/mL.
In the case of “Neisseria gonorrhoeae isolate 18 (blaTEM plasmid: no, gyrA: wild type, mtrR promoter: wild type, parC: wild type, penA: ins345Asp, ponA: wild type, porB: Lys120, Asn121, rpsJ: Met57, tetM plasmid: no)”, the MIC [1] is reported as 0.5 µg/mL, the MIC [2] is reported as 0.004 µg/mL and the MIC [3] is reported as 16 µg/mL. The MIC [4] was 0.5 µg/mL and the MIC [5] was 4 µg/mL.
Work on “Neisseria gonorrhoeae isolate 505 (blaTEM plasmid: no, gyrA: Phe91, Asn 95, mtrR promoter: -35delA, parC: Arg 87, Glu91, penA: ins345Asp, ponA: wild type, porB: Asp120, Ala121, rpsJ: wild type, tetM plasmid: no)” yielded an MIC [1] of 0.25 µg/mL, an MIC [2] of 0.008 µg/mL and an MIC [3] of 16 µg/mL. The MIC [4] was 0.5 µg/mL and the MIC [5] was 2 µg/mL.
Work on “Neisseria gonorrhoeae isolate 489 (blaTEM plasmid: no, gyrA: Phe91, Asn 95, mtrR promoter: -35delA, parC: wild type, penA: ins345Asp, ponA: Pro421, porB: Asn120, Asp121, rpsJ: Met57, tetM plasmid: no)” yielded an MIC [1] of 0.25 µg/mL, an MIC [2] of 0.03 µg/mL and an MIC [3] of 16 µg/mL. For the same test system, the MIC [4] was 1 µg/mL and the MIC [5] was 1 µg/mL.
“Neisseria gonorrhoeae isolate 388 (blaTEM plasmid: no, gyrA: wild type, mtrR promoter: wild type, parC: wild type, penA: ins345Asp, ponA: wild type, porB: wild type, rpsJ: wild type, tetM plasmid: no)” was tested, and the MIC [1] was 0.03 µg/mL, the MIC [2] was ≤ 0.002 µg/mL and the MIC [3] was 4 µg/mL. For the same test system, the MIC [4] was 0.03 µg/mL and the MIC [5] was 0.06 µg/mL.
In the case of “Neisseria gonorrhoeae isolate 337 (blaTEM plasmid: no, gyrA: Phe91, Asn95, mtrR promoter: -35delA, parC: wild type, penA: wild type, ponA: Pro421, porB: wild type, rpsJ: Met57, tetM plasmid: no)”, the MIC [1] is reported as 0.06 µg/mL, the MIC [2] is reported as ≤ 0.002 µg/mL and the MIC [3] is reported as 32 µg/mL. The MIC [4] was ≤ 0.015 µg/mL and the MIC [5] was 0.25 µg/mL.
With “Neisseria gonorrhoeae isolate 126 (blaTEM plasmid: no, gyrA: wild type, mtrR promoter: wild type, parC: Arg87, Glu91, penA: ins345Asp, ponA: wild type, porB: wild type, rpsJ: Met57, tetM plasmid: no)” the MIC [1] was 0.12 µg/mL, the MIC [2] was ≤ 0.002 µg/mL and the MIC [3] was 16 µg/mL. It also gave an MIC [4] of 0.03 µg/mL and an MIC [5] of 2 µg/mL.
Work on “Neisseria gonorrhoeae isolate 367 (blaTEM plasmid: yes, gyrA: wild type, mtrR promoter: wild type, parC: Asn 87, Lys91, penA: ins345Asp, ponA: Pro421, porB: wild type, rpsJ: Met57, tetM plasmid: yes)” yielded an MIC [1] of 0.12 µg/mL, an MIC [2] of 0.004 µg/mL and an MIC [3] of 32 µg/mL. For the same test system, the MIC [4] was 16 µg/mL and the MIC [5] was 32 µg/mL.
“Neisseria gonorrhoeae isolate 29 (blaTEM plasmid: no, gyrA: wild type, mtrR promoter: wild type, parC: wild type, penA: ins345Asp, ponA: wild type, porB: wild type, rpsJ: wild type, tetM plasmid: no)” was tested, and the MIC [1] was 0.015 µg/mL, the MIC [2] was ≤ 0.002 µg/mL and the MIC [3] was 32 µg/mL. For the same test system, the MIC [4] was 0.25 µg/mL and the MIC [5] was 0.12 µg/mL.
